# Reference: the supplement of paper PMC8728848
# The other results are listed elsewhere or left out.
# Key:
# Assay in all cases: glycan array binding signal (z-score within array); higher = stronger binding
# Details in all cases: glycan notation: IUPAC condensed, linker removed
# Neu5Ac(a2-3)Gal = biological target: Neu5Ac(a2-3)Gal
# Summary of the method: (§1)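 Columns mapping to the same glycan were averaged after glycan names were converted to IUPAC-condensed notation. The data come from 3228 arrays in the Consortium for Functional Glycomics database, limited to those with an available protein sequence. Binding is reported as a within-array Z-score averaged across arrays of one protein sequence and across linkers.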
# [1] = biological target: Neu5Ac(a2-3)Gal(b1-3)GalNAc
# Summary of the method: as §1
# [2] = biological target: Neu5Ac(a2-3)Gal(b1-3)GalNAc(b1-3)Gal(a1-4)Gal(b1-4)Glc
# Summary of the method: as §1
# [3] = biological target: Neu5Ac(a2-3)Gal(b1-3)GalNAc(b1-4)[Neu5Ac(a2-3)]Gal(b1-4)Glc
# Summary of the method: as §1
# [4] = biological target: Neu5Ac(a2-3)Gal(b1-3)GalNAc(b1-4)[Neu5Ac(a2-8)Neu5Ac(a2-3)]Gal(b1-4)Glc
# Summary of the method: as §1
# [5] = biological target: Neu5Ac(a2-3)Gal(b1-3)GalNAc6S
# Summary of the method: as §1
# [6] = biological target: Neu5Ac(a2-3)Gal(b1-3)GlcNAc
# Summary of the method: as §1
# [7] = biological target: Neu5Ac(a2-3)Gal(b1-3)GlcNAc(b1-2)Man
# Summary of the method: as §1
# [8] = biological target: Neu5Ac(a2-3)Gal(b1-3)GlcNAc(b1-2)Man(a1-3)[GlcNAc(b1-4)][Neu5Ac(a2-3)Gal(b1-3)GlcNAc(b1-2)Man(a1-6)]Man(b1-4)GlcNAc(b1-4)GlcNAc
# Summary of the method: as §1
# [9] = biological target: Neu5Ac(a2-3)Gal(b1-3)GlcNAc(b1-2)Man(a1-3)[Neu5Ac(a2-3)Gal(b1-3)GlcNAc(b1-2)Man(a1-6)]Man(b1-4)GlcNAc(b1-4)GlcNAc
# Summary of the method: as §1
# [10] = biological target: Neu5Ac(a2-3)Gal(b1-3)GlcNAc(b1-3)Gal(b1-3)GlcNAc
# Summary of the method: as §1
# [11] = biological target: Neu5Ac(a2-3)Gal(b1-3)GlcNAc(b1-3)Gal(b1-4)GlcNAc
# Summary of the method: as §1
# [12] = biological target: Neu5Ac(a2-3)Gal(b1-3)GlcNAc(b1-3)GalNAc
# Summary of the method: as §1
# [13] = biological target: Neu5Ac(a2-3)Gal(b1-3)GlcNAc(b1-4)Gal(b1-4)Glc
# Summary of the method: as §1
# [14] = biological target: Neu5Ac(a2-3)Gal(b1-3)GlcNAc(b1-6)GalNAc
# Summary of the method: as §1
# [15] = biological target: Neu5Ac(a2-3)Gal(b1-3)GlcNAc6S
# Summary of the method: as §1
# [16] = biological target: Neu5Ac(a2-3)Gal(b1-3)[Fuc(a1-4)]GlcNAc
# Summary of the method: as §1
# [17] = biological target: Neu5Ac(a2-3)Gal(b1-3)[Fuc(a1-4)]GlcNAc(b1-3)Gal(b1-3)[Fuc(a1-4)]GlcNAc
# Summary of the method: as §1
# [18] = biological target: Neu5Ac(a2-3)Gal(b1-3)[Fuc(a1-4)]GlcNAc(b1-3)Gal(b1-4)[Fuc(a1-3)]GlcNAc
# Summary of the method: as §1
# [19] = biological target: Neu5Ac(a2-3)Gal(b1-3)[GlcNAc(b1-6)]GalNAc
# Summary of the method: as §1
# [20] = biological target: Neu5Ac(a2-3)Gal(b1-3)[Neu5Ac(a2-6)]GalNAc
# Summary of the method: as §1
# [21] = biological target: Neu5Ac(a2-3)Gal(b1-3)[Neu5Ac(a2-6)]GlcNAc(b1-3)[Fuc(a1-3)[Gal(b1-4)]GlcNAc(b1-6)]Gal(b1-4)Glc
# Summary of the method: as §1
# [22] = biological target: Neu5Ac(a2-3)Gal(b1-3)]Neu5Ac(a2-3)Gal(b1-4)]GlcNAc
# Summary of the method: as §1
# Neu5Ac(a2-3)Gal(b1-4)Glc = biological target: Neu5Ac(a2-3)Gal(b1-4)Glc
# Summary of the method: as §1
# [23] = biological target: Neu5Ac(a2-3)Gal(b1-4)GlcNAc
# Summary of the method: as §1
# [24] = biological target: Neu5Ac(a2-3)Gal(b1-4)GlcNAc(b1-2)Man
# Summary of the method: as §1
# [25] = biological target: Neu5Ac(a2-3)Gal(b1-4)GlcNAc(b1-2)Man(a1-3)[GlcNAc(b1-4)][Neu5Ac(a2-3)Gal(b1-4)GlcNAc(b1-2)Man(a1-6)]Man(b1-4)GlcNAc(b1-4)GlcNAc
# Summary of the method: as §1
# [26] = biological target: Neu5Ac(a2-3)Gal(b1-4)GlcNAc(b1-2)Man(a1-3)[Neu5Ac(a2-3)Gal(b1-4)GlcNAc(b1-2)Man(a1-6)]Man(b1-4)GlcNAc(b1-4)GlcNAc
# Summary of the method: as §1
# [27] = biological target: Neu5Ac(a2-3)Gal(b1-4)GlcNAc(b1-2)Man(a1-3)[Neu5Ac(a2-3)Gal(b1-4)GlcNAc(b1-2)Man(a1-6)]Man(b1-4)GlcNAc(b1-4)[Fuc(a1-6)]GlcNAc
# Summary of the method: as §1
# [28] = biological target: Neu5Ac(a2-3)Gal(b1-4)GlcNAc(b1-2)Man(a1-3)[Neu5Ac(a2-6)Gal(b1-4)GlcNAc(b1-2)Man(a1-6)]Man(b1-4)GlcNAc(b1-4)GlcNAc
# Summary of the method: as §1
# [29] = biological target: Neu5Ac(a2-3)Gal(b1-4)GlcNAc(b1-2)[Neu5Ac(a2-3)Gal(b1-4)GlcNAc(b1-4)]Man(a1-3)[GlcNAc(b1-4)][Neu5Ac(a2-3)Gal(b1-4)GlcNAc(b1-2)[Neu5Ac(a2-3)Gal(b1-4)GlcNAc(b1-6)]Man(a1-6)]Man(b1-4)GlcNAc(b1-4)GlcNAc
# Summary of the method: as §1
# [30] = biological target: Neu5Ac(a2-3)Gal(b1-4)GlcNAc(b1-2)[Neu5Ac(a2-3)Gal(b1-4)GlcNAc(b1-4)]Man(a1-3)[GlcNAc(b1-4)][Neu5Ac(a2-3)Gal(b1-4)GlcNAc(b1-4)Man(a1-6)]Man(b1-4)GlcNAc(b1-4)GlcNAc
# Summary of the method: as §1
# [31] = biological target: Neu5Ac(a2-3)Gal(b1-4)GlcNAc(b1-2)[Neu5Ac(a2-3)Gal(b1-4)GlcNAc(b1-6)]Man(a1-6)[Neu5Ac(a2-3)Gal(b1-4)GlcNAc(b1-2)Man(a1-3)]Man(b1-4)GlcNAc(b1-4)GlcNAc
# Summary of the method: as §1
# [32] = biological target: Neu5Ac(a2-3)Gal(b1-4)GlcNAc(b1-2)[Neu5Ac(a2-3)Gal(b1-4)GlcNAc(b1-6)]Man(a1-6)[Neu5Ac(a2-3)Gal(b1-4)GlcNAc(b1-2)Man(a1-3)][GlcNAc(b1-4)]Man(b1-4)GlcNAc(b1-4)GlcNAc
# Summary of the method: as §1
# [33] = biological target: Neu5Ac(a2-3)Gal(b1-4)GlcNAc(b1-3)Gal
# Summary of the method: as §1
# [34] = biological target: Neu5Ac(a2-3)Gal(b1-4)GlcNAc(b1-3)Gal(b1-3)GlcNAc
# Summary of the method: as §1
# [35] = biological target: Neu5Ac(a2-3)Gal(b1-4)GlcNAc(b1-3)Gal(b1-4)GlcNAc
# Summary of the method: as §1
binder,measurement,setting,value
"DC-Sign (Homo sapiens), Q9NNX6 (protein) MSDSKEPRLQQLGLLEEEQLRGLGFRQTRGYKSLAGCLGHGPLVLQLLSFTLLAGLLVQVSKVPSSISQEQSRQDAIYQNLTQLKAAVGELSEKSKLQEIYQELTQLKAAVGELPEKSKLQEIYQELTRLKAAVGELPEKSKLQEIYQELTWLKAAVGELPEKSKMQEIYQELTRLKAAVGELPEKSKQQEIYQELTRLKAAVGELPEKSKQQEIYQELTRLKAAVGELPEKSKQQEIYQELTQLKAAVERLCHPCPWEWTFFQGNCYFMSNSQRNWHDSITACKEVGAQLVVIKSAEEQNFLQLQSSRSNRFTWMGLSDLNQEGTWQWVDGSPLLPSFKQYWNRGEPNNVGEEDCAEFSGNGWNDDKCNLAKFWICKKSAASCSRDEEQFLSPAPATPNPPPA",glycan array binding signal (z-score),Neu5Ac(a2-3)Gal,-0.182
same,glycan array binding signal (z-score),[1],-0.178
same,glycan array binding signal (z-score),[2],-0.188
same,glycan array binding signal (z-score),[3],-0.13
same,glycan array binding signal (z-score),[4],-0.185
same,glycan array binding signal (z-score),[5],-0.091
same,glycan array binding signal (z-score),[6],-0.193
same,glycan array binding signal (z-score),[7],-0.038
same,glycan array binding signal (z-score),[8],-0.003
same,glycan array binding signal (z-score),[9],-0.202
same,glycan array binding signal (z-score),[10],-0.136
same,glycan array binding signal (z-score),[11],-0.193
same,glycan array binding signal (z-score),[12],-0.142
same,glycan array binding signal (z-score),[13],-0.183
same,glycan array binding signal (z-score),[14],-0.177
same,glycan array binding signal (z-score),[15],-0.159
same,glycan array binding signal (z-score),[16],-0.084
same,glycan array binding signal (z-score),[17],1.83
same,glycan array binding signal (z-score),[18],-0.162
same,glycan array binding signal (z-score),[19],0.208
same,glycan array binding signal (z-score),[20],-0.168
same,glycan array binding signal (z-score),[21],-0.203
same,glycan array binding signal (z-score),[22],-0.13
same,glycan array binding signal (z-score),Neu5Ac(a2-3)Gal(b1-4)Glc,-0.109
same,glycan array binding signal (z-score),[23],-0.183
same,glycan array binding signal (z-score),[24],-0.142
same,glycan array binding signal (z-score),[25],-0.118
same,glycan array binding signal (z-score),[26],-0.107
same,glycan array binding signal (z-score),[27],-0.159
same,glycan array binding signal (z-score),[28],-0.196
same,glycan array binding signal (z-score),[29],-0.156
same,glycan array binding signal (z-score),[30],-0.187
same,glycan array binding signal (z-score),[31],-0.062
same,glycan array binding signal (z-score),[32],-0.187
same,glycan array binding signal (z-score),[33],-0.186
same,glycan array binding signal (z-score),[34],-0.14
same,glycan array binding signal (z-score),[35],-0.173
